# Assay results: article PMC5515408
# Some of the results follow. At the low end of the ranking the order means little.
# System: MYC (p64) + MAX (p21), in MYC:MAX
# Assay: protein-binding microarray (anti-MAX antibody)
# Conditions: PBM: 15 mM Tris-HCl pH 7.5, 100 mM KCl, 0.075% NP40, 7.5 mM beta-mercaptoethanol, 375 ng/ul BSA, 8 ng/ul poly(dA-dT):(dA-dT), 550 ng complex, 60 min, room …; high values mean tight binding; double strand, one strand shown; sequences stand for … in CCGGC…TTAATAGCTAAGATTACTATATCGACG
row,Sequence,binding signal (log2 normalized fluorescence)
1,CGACCCGTGCTA,0.496
2,TGAATTATGGTA,0.00718
3,TGACGTCCGGTA,0.167
4,TGACTTACAGTA,-0.0187
5,TGAGTTGGTGTA,-0.00306
6,TGTATCGTGGTA,0.398
7,TGAAAGCGGGTA,0.0838
8,TGATGCTTCGTA,0.162
9,TGATTGTATGTA,0.0121
10,TGAAAATACGTA,0.159
11,TGAACCGTAGTA,-0.187
12,TGACACGTGTGC,0.818
13,TGAGGGGCAGTA,0.394
14,TGAAATGAAGTA,0.0276
15,TGAATCAGTGTA,0.0631
16,TGACCCCTTGTA,-0.0765
17,TGAACGGCCGTA,0.0168
18,TGACAACGAGTA,0.257
19,TGAACGGGTGTA,-0.0535
20,AAACACGTGGTA,1.02
21,TGAAGAGCGGTA,0.13
22,TGACGCGGTGTA,0.156
23,TGAAGGGTCGTA,0.0463
24,TGACCAAGCGTA,0.126
25,TGATACGGGGTA,0.136

row,Sequence,binding signal (log2 normalized fluorescence)
1,TGAGTGGGAGTA,0.0653
2,TGATCAGAAGTA,0.197
3,TGAGCCCCGGTA,-0.0235
4,TGAGTACCTGTA,0.076
5,TGAGACATGGTA,0.298
6,TGAAGTAATGTA,0.118
7,TGAACGCGGGTA,0.201
8,TGACGGAGCGTA,0.0737
9,TGACACGTCACA,0.51
10,TGATATACTGTA,-0.0699
11,TGAACTACTGTA,0.188
12,TGACACGTTCAA,0.563
13,TGAGTCACTGTA,0.221
14,TGAGGCTTGGTA,-0.0912
15,TGAGACTGAGTA,-0.128
16,TGAATAATGGTA,0.0389
17,TGAGCGCACGTA,0.294
18,TGAATCCAAGTA,-0.13
19,TGACACGGTCTA,0.332
20,TGATGCCCTGTA,-0.00115
21,TTCGCTCTTTGA,-0.219
22,TGACACATGGTG,0.748
23,TGATATACGGTA,-0.026
24,TGGTCCGTGGTA,-0.0337
25,TGAAATACGGTA,0.102

row,Sequence,binding signal (log2 normalized fluorescence)
1,TGAATTGTAGTA,0.0486
2,TGACCTAGGGTA,-0.0467
3,TGACTCCACGTA,0.225
4,AGAGACGTGGTA,0.387
5,TGAGCGAGGGTA,0.223
6,TGATTATTTGTA,-0.0994
7,TGAGTGTATGTA,0.205
8,TCACCCGTGGTA,0.412
9,TGAAAGAATGTA,0.0901
10,TGAGTGCTAGTA,0.123
11,TGATGGGGAGTA,0.296
12,TGAAACCACGTA,0.379
13,GATCACGTGGTA,0.946
14,TGATGACGAGTA,-0.00261
15,TGATTCGCTGTA,0.0417
16,TGACCTAACGTA,0.0453
17,TAACGCGTGGTA,0.783
18,CTAGTCTAGAAT,-0.374
19,TGAGAGTATGTA,0.132
20,TGAAACGGGGTC,0.201
21,TGACTAGACGTA,-0.0767
22,TGAAGGGTGGTA,0.18
23,TGAGCCGCTGTA,0.0565
24,TGATCCGGGGTA,-0.0173
25,TGATCATCCGTA,0.104

row,Sequence,binding signal (log2 normalized fluorescence)
1,TGACTGCGCGTA,0.301
2,TGAACGCAGGTA,0.126
3,GTACACGTGGTA,0.671
4,TGACACGTTGGA,0.728
5,TGACGCAGAGTA,0.0585
6,TGATCGAGTGTA,-0.0449
7,TAACAAGTCGTA,0.0777
8,TGAGCGTATGTA,0.285
9,TTACATGTGGAA,0.696
10,TGATAGTCGGTA,0.0385
11,TGATTCAATGTA,0.176
12,TGCCATGCGGTA,0.684
13,TGAATTCTGGTA,0.0878
14,TGATCAACAGTA,-0.0508
15,TGAGTTCCCGTA,0.0824
16,AGAAACGTGTTA,0.573
17,TGAGTCAATGTA,-0.11
18,TGACTTCACGTA,0.249
19,TGACCCCGCGTA,0.242
20,TGACACGTGACG,0.654
21,TTACACATGGTA,0.641
22,TGAAAAACGGTA,-0.138
23,TGACCTGCGGTA,0.144
24,TGACGCCCTGTA,0.133
25,TCGATCTTGTTC,-0.147

row,Sequence,binding signal (log2 normalized fluorescence)
1,CGACACGTCGTA,0.338
2,TGAGAGAAGGTA,-0.176
3,TGACTATATGTA,0.0227
4,TGATCTCTGGTA,-0.209
5,TGAGCGGATGTA,-0.0384
6,TGAACCCTCGTA,0.0755
7,TGAGTAATAGTA,-0.161
8,TGATGGTGAGTA,0.0493
9,TGACGGGACGTA,0.123
10,TGACCCCTCGTA,0.296
11,TGACTTGTAGTA,0.0926
12,TGACTTAATGTA,0.12
13,TGAAAACCCGTA,0.0927
14,TGAGTCGGCGTA,-0.0133
15,TGACACGTGTTC,0.738
16,TGAAGGGGTGTA,0.418
17,TGATAACTTGTA,0.0225
18,TGCCACGTGATA,0.881
19,AGCTACGTGGTA,0.389
20,TGACCCGTTGTG,0.189
21,ATGAGTATTCGC,0.311
22,TGACACGCCGTC,0.368
23,TGATTGTGGGTA,0.0321
24,TGATGAAGTGTA,-0.0759
25,TGACCCTTAGTA,0.0901

row,Sequence,binding signal (log2 normalized fluorescence)
1,TCACGATGGGGC,0.398
2,TGACCGCTTGTA,0.252
3,TGGGGCGTGGTA,0.471
4,TGACGTGCAGTA,0.418
5,TGAAATCGCGTA,0.18
6,TGATAACAAGTA,-0.0262
7,TGATTGAATGTA,-0.104
8,TGATGTGATGTA,0.165
9,TGACACGTTGCA,0.792
10,TGAGGAACAGTA,-0.00619
11,TGAGGTATCGTA,-0.0909
12,TGAAGCAAGGTA,0.37
13,TGAGGAATCGTA,-0.205
14,TGCTTCGTGGTA,0.286
15,TGAAGCTGGGTA,-0.0941
16,TGAATCTGGGTA,-0.0547
17,TGAGGACCTGTA,0.0336
18,TGAAGAAACGTA,-0.0283
19,TGATTCCGGGTA,-0.26
20,TGAAGGTTTGTA,0.0558
21,TGACGAATTGTA,-0.0771
22,TGATTGCATGTA,0.261
23,TGGCAAGGGGTA,0.235
24,AGACACGAGGTT,0.64
25,TGAAAAGGGGTA,0.161

row,Sequence,binding signal (log2 normalized fluorescence)
1,TTTACATATAAT,0.255
2,TGAATGGCTGTA,0.155
3,TGACCCGATGTA,0.291
4,TGATATGCAGTA,0.103
5,TGATCGCTGGTA,-0.12
6,TGAGCTTTCGTA,0.0217
7,TGAAGAATCGTA,0.0539
8,TGACCAAGAGTA,0.0715
9,TGAAGGTATGTA,0.216
10,TATGATTACGTC,-0.0777
11,TGAGCACCGGTA,0.257
12,TGAGGCCAGGTA,-0.0646
13,TGTCCCGTGGTA,0.344
14,TGAAAGCTCGTA,-0.115
15,TGACATGCCGTA,0.332
16,TGACAAGACGTA,0.244
17,TGAGTCCATGTA,0.245
18,TGAAACTGAGTA,0.00205
19,TGATTAACCGTA,0.0582
20,TGATGACCAGTA,-0.073
21,TGAAATCCAGTA,0.0553
22,TGAGTTCGGGTA,-0.228
23,TTTTACGTGGTA,0.313
24,TGAGCACGAGTA,0.508
25,TGAGTTTTAGTA,-0.0871

row,Sequence,binding signal (log2 normalized fluorescence)
1,TGAGCGAACGTA,0.18
2,TGAATAGGGGTA,0.121
3,AGACACGTCGTA,0.32
4,TGACAGTTGGTA,0.112
5,TCACACGGGTTA,0.461
6,TGACACGTAGAA,0.388
7,TGAAGTCTTGTA,-0.149
8,TGAGTTCAAGTA,-0.0465
9,TGACGAAATGTA,-0.0918
10,TGATCACCTGTA,0.245
11,TGATGATGAGTA,-0.0716
12,TGACCAAGTGTA,0.214
13,TGACTAGTGTTA,0.197
14,TGAGCGCGGGTA,0.184
15,TGATTAGAGGTA,-0.127
16,TGACGTCCCGTA,0.132
17,TGAGCGGAAGTA,-0.124
18,GGTCACGTGGTA,0.805
19,TGATACGGGGAA,-0.00569
20,TGATGATTCGTA,-0.0178
21,TGAATGACAGTA,0.0219
22,TGATCCACCGTA,0.16
23,TGAAACGAGGCA,0.405
24,TGATATTGAGTA,0.0488
25,TGAGTGCATGTA,0.195

row,Sequence,binding signal (log2 normalized fluorescence)
1,TGAACTTGCGTA,0.264
2,TGAGTGCTCGTA,0.257
3,TGACAGGCTGTA,0.315
4,TTCGATCCTGCA,0.122
5,TGAGTGAGTGTA,0.08
6,TGAGGTATAGTA,-0.129
7,TGACCAGTTGTA,0.159
8,TGAATTGACGTA,-0.0295
9,TGATTCATAGTA,-0.149
10,TGATCTATGGTA,-0.0645
11,TGAGGCGAAGTA,0.0114
12,TGATCGTGAGTA,0.157
13,TGATACTAGGTA,-0.0149
14,TGATATCTTGTA,-0.0379
15,TGACGCCCAGTA,0.158
16,TGAATACTTGTA,0.091
17,TGATGACGGGTA,-0.0248
18,TTCAACGTGGTA,0.604
19,TGAACGCGTGTA,0.587
20,TGAACATTTGTA,0.134
21,TGAGGTAACGTA,-0.0392
22,TGACCTAAGGTA,-0.0575
23,GGACACGTCGTA,0.287
24,TGAGGCCTCGTA,0.0501
25,AGACACGTGTTA,0.993

row,Sequence,binding signal (log2 normalized fluorescence)
1,TGAGTAGAAGTA,-0.511
2,TGATAAGGCGTA,0.144
3,TGAACAGCGGTA,0.115
4,TGATGGGATGTA,0.0794
5,TGACGGTCCGTA,0.087
6,TGAGCCCGCGTA,0.0659
7,TGAATCAGGGTA,0.22
8,TGATTTTAGGTA,-0.303
9,TGAGATACCGTA,0.0749
10,TGACATCCGGTA,0.231
11,TGAGTACTGGTA,-0.0462
12,TGATAAGGAGTA,-0.179
13,ACCCACGTGGTA,0.845
14,TGACAGAAGGTA,0.162
15,TGACGGGCAGTA,-3.08e-05
16,TGACTAATAGTA,-0.149
17,TGACCGTAAGTA,0.214
18,TGATGATCAGTA,0.194
19,TGATTGCAAGTA,0.0964
20,TGAGCGGAGGTA,-0.0595
21,TGATCTGGGGTA,-0.00296
22,TGAATTGGAGTA,-0.206
23,TGATACTGAGTA,-0.234
24,TGATCACCGGTA,0.279
25,TGATCGACCGTA,0.0624

row,Sequence,binding signal (log2 normalized fluorescence)
1,TAAGATACCACT,0.161
2,TGACGAGGAGTA,0.0602
3,TGACATGGGCTA,0.235
4,TGGCGCATGGTA,0.571
5,TGACTCCTAGTA,-0.161
6,TGATACGCTGTA,0.216
7,TGACGGCGAGTA,-0.00993
8,TGAATGAGAGTA,-0.0627
9,TGATGTTGAGTA,-0.0114
10,TGAGACAAAGTA,-0.00541
11,CCCAAACTTCGA,0.0995
12,TGAGTAATTGTA,-0.179
13,TGAACTTGGGTA,0.0861
14,TGACGCAGTGTA,0.123
15,TGAGGACCGGTA,-0.014
16,TGACAGTATGTA,0.19
17,TGAGTGTGAGTA,0.101
18,TGACGGCCCGTA,0.0646
19,GGACGCGTGGTA,0.64
20,TGATGTTGTGTA,0.0276
21,TACGAATATGGT,0.0675
22,TGACAATGAGTA,0.151
23,TGAGCCAGCGTA,-0.123
24,TGAAATCTGGTA,0.0182
25,TGATTGGCCGTA,-0.191
